Laboratory results taken from the supplement of paper PMC4723716.
± gives the uncertainty stated by the source. In all, about 9,900 compounds were measured (“viability index relative to DMSO control”: median about 1, lowest 2% from about 0.85 on). This is one part of the list.

Test system: Plasmodium falciparum NF54 stage V gametocytes
Assay: viability index relative to DMSO control (fraction); higher = less gametocyte killing
Details: 2.5 µM, library set: Broad Institute DOS, incubation time: 72 h
Summary of the method: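 Gametocytes (P. falciparum NF54, stage V) were treated with compound at 2.5 µM for 72 hr at 37°C in low oxygen, in serum-free medium at 0.75% gametocytemia and 1.25% hematocrit. Counts of 20–70 µm2 red particles, taken from one field per well after MitoTracker Red CMXRos with saponin, were divided by the plate mean of solvent-only wells. This ratio is the viability index.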

| Structure (SMILES) | viability index |
| --- | --- |
| O=C(Nc1cccc(F)c1)N1CCCCN2[C@H](CO)[C@@H](c3ccc(C#Cc4cccnc4)cc3)[C@H]2C1 | 0.8437 ± 0.0061 |
| C[C@@H]1CN([C@H](C)CO)C(=O)c2cc(NS(=O)(=O)c3cn(C)cn3)ccc2O[C@@H]1CN(C)S(=O)(=O)c1ccc(F)cc1 | 0.951 ± 0.011 |
| O=C(C1CCCCC1)N1CC2(C1)[C@H](c1ccccc1)[C@@H](CO)N2CCC(F)(F)F | 1.05 ± 0.046 |
| O=C(CN1CCOCC1)N1CC[C@H]2[C@H](CO)Nc3ccc(-c4ccccc4F)cc3[C@H]21 | 0.9492 ± 0.0024 |
| COc1cccc(-c2ccc([C@@H]3[C@@H]4CN(S(=O)(=O)c5cn(C)cn5)C[C@H]3N4)cc2)c1 | 1.11 ± 0.085 |
| O=C(c1ccncc1)N1CC2(C1)[C@H](c1ccccc1)[C@H](CO)N2CC1CC1 | 1.09 ± 0.018 |
| O=C(C[C@@H]1C=C[C@@H](NC(=O)Nc2ccccc2F)[C@H](CO)O1)NCc1ccc(-c2ccccc2)cc1 | 1.09 ± 0.1 |
| Cc1noc(C)c1S(=O)(=O)Nc1ccc2c(c1)C(=O)N([C@@H](C)CO)C[C@@H](C)[C@H](CN(C)C(=O)Nc1cccc3ccccc13)OCCCC[C@H](C)O2 | 0.983 ± 0.044 |
| CN1C[C@H]2[C@@H](c3ccccc31)[C@H](CO)N2S(=O)(=O)c1ccccc1 | 1.046 ± 0.0068 |
| Cc1noc(C)c1NC(=O)Nc1ccc2c(c1)C(=O)N([C@H](C)CO)C[C@@H](C)[C@H](CN(C)Cc1ccc3c(c1)OCO3)OCCCC[C@H](C)O2 | 1.11 ± 0.032 |
| C[C@H]1CN([C@@H](C)CO)S(=O)(=O)c2ccc(Br)cc2O[C@H]1CN(C)C(=O)Nc1ccccc1F | 1.01 ± 0.046 |
| C[C@@H](NC(=O)C[C@H]1CC[C@@H]2[C@@H](COc3ccc(NS(=O)(=O)c4ccc(Cl)cc4)cc3C(=O)N2C)O1)c1ccccc1 | 0.9973 ± 0.0017 |
| C[C@H]1CN([C@@H](C)CO)C(=O)c2ccccc2-c2ccccc2CO[C@H]1CN(C)C(=O)CCC(F)(F)F | 1 ± 0.23 |
| O=C(Nc1ccccc1F)N1CCCCN2[C@H](C1)[C@@H](c1ccc(/C=C/c3ccccc3)cc1)[C@@H]2CO | 0.929 ± 0.011 |
| C[C@H]1CCCCO[C@H](CN(C)C(=O)Nc2ccc3c(c2)OCO3)[C@@H](C)CN([C@@H](C)CO)C(=O)c2cc(NS(=O)(=O)c3ccc(F)cc3)ccc2O1 | 1.04 ± 0.093 |
| O=C(c1ccncc1)N1CC2(C1)[C@H](c1ccccc1)[C@@H](CO)N2CC1CC1 | 1.08 ± 0.016 |
| CO[C@@H]1CN(C)C(=O)c2ccc(NC(=O)Nc3ccccc3F)cc2OC[C@H](C)N(CC2CC2)C[C@@H]1C | 1.001 ± 0.0029 |

| Structure (SMILES) | viability index |
| --- | --- |
| O=C(C[C@H]1CC[C@H]2[C@@H](COC[C@@H](O)CN2C(=O)c2ccncc2)O1)Nc1ccc(-c2ccccc2)cc1 | 1.1013 ± 0.00074 |
| N#C[C@@H]1[C@H](c2ccc(C3=CCCCC3)cc2)[C@H](CO)N1C(=O)Nc1ccccc1F | 1.01 ± 0.069 |
| CN(C)C(=O)c1ccc(-c2ccc3c(c2)[C@H]2[C@H](CCN2C(=O)C2CCCC2)[C@@H](CO)N3C)cc1 | 0.9489 ± 0.0085 |
| CN(C)C(=O)c1cccc(-c2ccc3c(c2)[C@@H]2[C@@H](CCN2C(=O)Cc2ccccc2)[C@@H](CO)N3)c1 | 1.04 ± 0.025 |
| COc1ccccc1CN1[C@@H]2c3ccc(C4=CCCC4)c(=O)n3C[C@H]1[C@H](CO)[C@H]2C(=O)N(C)C | 1.05 ± 0.028 |
| Cc1ccc(S(=O)(=O)NCC[C@H]2CC[C@@H](NC(=O)c3cccnc3)[C@@H](CO)O2)cc1 | 1.16 ± 0.032 |
| C[C@@H]1CN([C@H](C)CO)S(=O)(=O)c2ccc(C#Cc3ccccc3F)cc2O[C@H]1CN(C)C(=O)Cc1cccnc1 | 0.963 ± 0.02 |
| COCC(=O)Nc1ccc2c(c1)[C@H]1C[C@@H](CC(=O)N[C@@H](C)c3ccccc3)O[C@@H](CO)[C@H]1O2 | 1.083 ± 0.01 |
| CN1C(=O)c2cc(NC(=O)C3CCOCC3)ccc2OC[C@H]2O[C@H](CC(=O)NCCc3ccncc3)CC[C@@H]21 | 1.14 ± 0.095 |
| CO[C@H]1CN(C)C(=O)c2ccc(NC(=O)c3ccno3)cc2OC[C@H](C)N(S(C)(=O)=O)C[C@@H]1C | 1.07 ± 0.034 |
| CO[C@H]1CN(C)C(=O)c2ccc(NC(=O)c3nc4ccccc4s3)cc2OC[C@@H](C)N(Cc2cccnc2)C[C@H]1C | 1.11 ± 0.022 |
| COc1ccc2c3c([nH]c2c1)[C@H](CO)NC[C@]31CN(C1)C(=O)Nc1ccc2OCOc2c1 | 1.03 ± 0.021 |
| CO[C@H]1CN(C)C(=O)c2ccc(NC(=O)Nc3cc(F)ccc3F)cc2OC[C@H](C)N(C(=O)c2ccccn2)C[C@@H]1C | 1.13 ± 0.11 |
| C[C@@H](NC(=O)C[C@@H]1CC[C@H]2[C@@H](COC[C@@H](O)CN2C(=O)Nc2cccc(Cl)c2)O1)c1ccccc1 | 1.11 ± 0.047 |
| C[C@H](CO)N1C[C@H](C)[C@@H](CN(C)C(=O)Nc2ccc3c(c2)OCO3)OCCCC[C@H](C)Oc2ccc(NS(=O)(=O)c3ccc(F)cc3)cc2C1=O | 1.12 ± 0.1 |
| Cn1cnc(CCNC(=O)C[C@H]2CC[C@H]3[C@@H](COC[C@@H](O)CN3C(=O)Nc3ccc(C(F)(F)F)cc3)O2)c1 | 1.09 ± 0.031 |
